Laboratory results: PubChem BioAssay AID445 (National Center for Advancing Translational Sciences (NCATS), 2006)
Among all 110,000 compounds or so, about 40 (0.04%) were called active. The shares of active, inactive and inconclusive entries below differ from those in the screen. Calls follow the shape of the dose curve; as a rule, active = well fitted curve in the direction sought with a large enough effect in the signal ratio (not every such curve was filed as active); inconclusive = small, poorly fitted or top-dose-only effect, or a change in a side signal; inactive = flat fitted curve, though single readings scatter; the % refers to the signal ratio. Potencies beside an inconclusive call are fits to weak or partial responses and may not hold up.

Assay: IkB Signaling;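 as to IkBa stabilization activation: 0% = basal untreated cells and 100% = reference inhibitor full response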
Settings: ABC-DLBCL IkBa-CBG/CBR dual luciferase ratio (green luciferase fused to IkBa over red control in OCI-Ly3 lymphoma cells), 4 h; IkBa stabilization activation: at 57.1 µM (top of the series), scaled: untreated 0%, proteasome inhibitor 100% unless noted
Outline: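 Curves were fitted separately to fusion (green), unfused (red) and ratio luminescence, then classed by r2, magnitude and activity. Cells: OCI-Ly3, 4 h compound plus doxycycline at 37C; 10 uM MG-132 defined full response.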
Potency is read from the fitted curve at half-maximal effect.

Row | SMILES | IkBa stabilization activation | Potency
1 | O=C(O)[C@@H](Br)[C@@H](Br)c1ccccc1[N+](=O)[O-] | inactive: 0.167% [at 11.4 µM, scaled: untreated 0%, proteasome inhibitor 100%] | 
2 | COCCOC(=O)c1[nH]c2c(c1C)C(=O)CC(c1cc(OC)ccc1OC)C2 (stereo unspecified) | inactive: -1.4% | 
3 | Cc1ccc(C)c(Cn2nnc(C(=O)NCc3ccc(Cl)cc3Cl)c2N)c1 | inactive: 2.3% | 
4 | Cc1cc(C)cc(NC(=O)CN2C(=O)c3ccccc3Sc3ccc(C(=O)N4CCOCC4)cc32)c1 | inconclusive: 13.4% [signal inhibitor] | 
5 | CCn1c(=O)cc(SCC(=O)N2CCC(C)CC2)c2ccccc21 | inactive: -0.398% | 
6 | O=C(NCc1cccc(F)c1)C1=Cc2cc(Br)ccc2OC1 | inconclusive: -1.61% [signal inhibitor] | 
7 | CCOC(=O)c1ccccc1NC(=O)Cn1c(-c2nonc2N)nc2ccccc21 | inactive: 7.37% | 
8 | Cc1ccc(-n2ccnc(NCc3ccccc3)c2=O)cc1C | inconclusive: 3.71% [signal inhibitor] | 
9 | CC(C)NC[C@@H](O)COc1ccccc1-n1cccc1 | inactive: 0.0701% | 
10 | CN(C1CCCCC1)S(=O)(=O)c1ccc2c(c1)c(=O)c(C(=O)NCCc1ccc(Cl)cc1)cn2C | inconclusive: 2.12% [signal inhibitor] | 
11 | Cc1ccc(-c2nnc(Nc3cccc(Cl)c3)c3ccccc23)cc1S(=O)(=O)NCC1CCCO1 (stereo unspecified) | inconclusive: 16.8% [signal inhibitor] | 
12 | Cn1nc(-c2ccc(OCC(=O)Nc3cccnc3)cc2)c2ccccc2c1=O | inconclusive: 3.93% [signal inhibitor] | 
13 | Nc1nc(-c2ccccc2)cc(-c2ccccc2O)n1 | inconclusive: -4.7% [signal inhibitor] | 
14 | COc1cccc(OCCCCn2c(-c3ccc(Cl)cc3)nc3ccccc3c2=O)c1 |  | inconclusive: 15.8 µM [signal inhibitor, partial curve]
15 | Cc1ccc(-c2onc(C)c2C)cc1S(=O)(=O)NCc1ccco1 | inconclusive: 1.46% [signal inhibitor] | 
16 | O=C(c1cccc([N+](=O)[O-])c1)N1c2ncnn2C2(CCCCC2)[C@@H]2CCCC[C@@H]21 | inconclusive: 0.29% [signal inhibitor] | 
17 | Cc1ccc(S(=O)(=O)c2cnc(SCC(=O)Nc3ccc4c(c3)OCCO4)[nH]c2=O)cc1 | inconclusive: 3.14% [signal inhibitor] | 
18 | Cc1cc(C(=O)OCc2nnc(-c3ccccc3)o2)c(C)n1-c1ccccc1 | inconclusive: 0.574% [signal inhibitor] | 
19 | O=C1SC(SCc2ccccc2)=N/C1=C\c1ccco1 | inactive: 4.96% | 
20 | CCC(OC(=O)c1cc2sccc2n1C)C(=O)NCc1ccco1 (stereo unspecified) | inconclusive: 1.27% [signal inhibitor] | 
21 | CC(C)(C)c1ccc(O)c(O)c1 |  | inconclusive: 39.8 µM [rising, partial curve]
22 | O=C(CSc1nnc(C2COc3ccccc3O2)o1)N1CCCc2ccccc21 (stereo unspecified) | inconclusive: -1.62% [signal inhibitor] | 
23 | CCCCOc1ccccc1Cn1c(=O)oc2ccc(C)cc21 | inactive: 3.64% | 
24 | COc1ccccc1Nc1nn2c(=O)c3ccc(C(=O)NCc4cccs4)cc3nc2s1 | inconclusive: -1.05% [signal inhibitor] | 

Row | SMILES | IkBa stabilization activation | Potency
25 | Cc1ccc2c(=O)c(C(=O)c3ccc(F)cc3)cn(CC(=O)NCc3ccccc3)c2n1 | inconclusive: 1.1% [signal inhibitor] | 
26 | COc1cccc(Cn2c(CNC(=O)C(C)C)nc3cccnc32)c1 | inactive: 1.38% | 
27 | COc1ccc(-n2nnnc2SCC(=O)N2C(C)CCCC2C)c(OC)c1 (stereo unspecified) | inactive: 1.13% | 
28 | COC(=O)c1ccc(C(=O)OC)c(NC(=O)COC(=O)C23CC4CC(CC(O)(C4)C2)C3)c1 | inconclusive: 1.39% [signal inhibitor] | 
29 | COc1ccc(OC)c(S(=O)(=O)NCCc2sc(-c3ccc(C)cc3)nc2C)c1 | inconclusive: -2% [signal inhibitor] | 
30 | Cc1ccc(C)c(NC(=O)c2ccccc2O)c1 | inconclusive: 4.65% [signal inhibitor] | 
31 | COc1ccc(C(=O)Nc2ccc(-c3nc4ncccc4o3)cc2)cc1 | inconclusive: -1.6% [signal inhibitor] | 
32 | Cc1cc(Nc2ccc(C)c(C)c2)n2cnnc2n1 | inconclusive: 7.24% [signal inhibitor] | 
33 | Cn1c(=O)[nH]c(=O)c2[nH]c(N(Cc3ccccc3)Cc3ccccc3)nc21 | inactive: 2.69% | 
34 | CCN(CC)c1ccc(NC(=O)CSc2nnc(C)c(=O)[nH]2)cc1 | inactive: 0.977% | 
35 | CCCN(CCC)C(=O)CSc1nnc2cc(C)c3cc(C)cc(C)c3n12 | inconclusive: 0.0621% [signal inhibitor] | 
36 | Clc1ccc2oc(-c3ccccn3)nc2c1 | inactive: 1.12% | 
37 | O=C(Nc1cc(Cl)cc(Cl)c1)c1ccc(F)c(S(=O)(=O)NC2CCCC2)c1 | inactive: -2.69% | 
38 | Cc1cccc(CN2C(=O)c3ccccc3Sc3ccc(C(=O)N4CCCC4)cc32)c1 | inconclusive: -1.11% [signal inhibitor] | 
39 | COc1ccc(Nc2ncc3nc(-c4cccs4)c(=O)n(Cc4cccc(OC)c4)c3n2)cc1 | inactive: 1.63% [at 11.4 µM, scaled: untreated 0%, proteasome inhibitor 100%] | 
40 | COC(=O)c1c(-c2cccs2)csc1NC(=O)c1ccc(Cl)cc1 | inconclusive: 2.76% [signal inhibitor] | 
41 | COCCN1C(=O)c2[nH]nc(-c3ccccc3O)c2C1c1ccc(OCc2ccccc2)c(OC)c1 (stereo unspecified) | inconclusive: -0.885% [signal inhibitor] | 
42 | CCc1ccc(N(CC)C(=O)c2ccc3c(=O)n4c(nc3c2)CCCCC4)cc1 | inconclusive: 2.71% [signal inhibitor] | 
43 | CCN(CC)c1ccc(-c2nn3c(-c4ccccc4OC)nnc3s2)cc1 | inconclusive: -5.77% [signal inhibitor] | 
44 | CCCCN(C)CCNC(=O)c1cc(=O)[nH]c2ccc(S(=O)(=O)N3CCCCCC3)cc12 | inactive: -1.22% | 
45 | CCC(=O)Nc1cc(NC(=O)CSc2ncc(-c3ccc(F)cc3)n2Cc2ccco2)ccc1C |  | inconclusive: 0.158 µM [signal inhibitor, full curve]
46 | Cc1ccc(NC(=O)c2ncn(-c3ccccc3)n2)cc1Cl |  | inconclusive: 10 µM [signal inhibitor, partial curve]
47 | Cc1nc(-n2nc(C)c(Cc3ccccc3Cl)c2C)sc1C(=O)N1CCCCC1C (stereo unspecified) | inconclusive: 0.565% [signal inhibitor] | 
48 | Cc1ccc(NC(=O)CS(=O)(=O)c2nc(-c3ccc(C)cc3)cn2-c2ccc(C)cc2)cc1 | inconclusive: -1.74% [signal inhibitor] | 

Row | SMILES | IkBa stabilization activation | Potency
49 | N#CC(=C1CCCC1)c1nc(-c2ccccc2O)cs1 | inactive: 0.0248% | 
50 | Cc1cc2ccccc2n1CCNC(=O)COc1ccccc1 | inactive: -4.16% | 
51 | O=S(=O)(c1ccc2ccccc2c1)n1nc(-c2ccco2)nc1NCc1ccc(F)cc1 | inconclusive: -0.101% [signal inhibitor] | 
52 | Cc1cc(NC(=O)CCCn2c(C)c3cnn(-c4ccccc4)c(=O)c3c2C)ccc1Br | inconclusive: 3.21% [signal inhibitor] | 
53 | Cc1cc(C)cc(C(=O)N(Cc2nc(-c3ccc(Cl)cc3)no2)C(C)C)c1 | inconclusive: 2.11% [signal inhibitor] | 
54 | CCOc1ccccc1NC(=O)CN1C(=O)CC(c2ccco2)Sc2ccccc21 (stereo unspecified) | inconclusive: 0.228% [signal inhibitor] | 
55 | Cc1ccc(-n2nc(C)c(C3C(C#N)=C(N)OC4=C3C(=O)CC(C)(C)C4)c2Cl)cc1 (stereo unspecified) | inactive: 3.1% | 
56 | COc1ccc(N2CCN(C(=O)c3cn(C4CCCC4)c(=O)c4c3c3ccccc3n4C)CC2)cc1 | inconclusive: 1.74% [signal inhibitor] | 
57 | COC(=O)c1ccc(OCC(O)Cn2cnc3cc(C)c(C)cc32)cc1 (stereo unspecified) | inconclusive: 8.12% [signal inhibitor] | 
58 | CCN(C(=O)CSc1ncc(S(=O)(=O)c2ccc(C)c(Cl)c2)c(=O)[nH]1)c1cccc(C)c1 | inconclusive: 0.267% [signal inhibitor] | 
59 | COc1cccc(Cn2c(-c3nonc3N)nc3ccccc32)c1 | inactive: 3.18% | 
60 | COc1ccc(NC(=O)CC2SC(=Nc3ccccc3)NC2=O)c(OC)c1 (stereo unspecified) | inconclusive: 18% [signal inhibitor] | 
61 | COCCCNC(=O)c1c(NC(=O)c2nc(S(C)(=O)=O)ncc2Cl)sc2c1CCCC2 | inactive: -4.3% | 
62 | COc1ccc(NC(=O)Nc2cccc3cccnc23)cc1 | inconclusive: 1.29% [signal inhibitor] | 
63 | COc1ccc(OC)c(NC(=O)c2cc3c(s2)-c2ccccc2SC3)c1 | inconclusive: 3.14% [signal inhibitor] | 
64 | COC(=O)n1c(SC)nc2ccccc21 | inactive: -1.21% | 
65 | CCC(=O)N1c2ccccc2CC1C(=O)NCc1ccccc1C (stereo unspecified) | inactive: -0.59% | 
66 | Cc1ccc(-n2ncc(C(=O)NC3CCCC3)c2C2CCN(C(=O)OC(C)(C)C)CC2)c(C)c1 | inconclusive: -1.12% [signal inhibitor] | 
67 | Cc1ccc(C)c(NS(=O)(=O)c2ccc3c4c(cccc24)C(=O)N3)c1 | inconclusive: -5.51% [signal inhibitor] | 
68 | COc1ccc(OC)c(Nc2nc3ccccc3n3c(C)nnc23)c1 | inconclusive: 2.78% [signal inhibitor] | 
69 | Nc1nc(NC(=O)c2ccco2)nn1-c1ccccc1 |  | inconclusive: 25.1 µM [signal inhibitor, partial curve]
70 | COc1ccc(-c2nc(CN3CCC(C(=O)NCCCN4CCN(c5ccccc5F)CC4)CC3)c(C)o2)cc1OC | inactive: -0.0681% | 
71 | O=C(Nc1cc(-c2nc3cc(Cl)ccc3o2)ccc1Cl)c1cccs1 | inconclusive: 4% [signal inhibitor] | 
